Assay results as given in PubChem BioAssay AID904 (National Center for Advancing Translational Sciences (NCATS), 2007).
Out of some 55,000 compounds screened, about 530 (0.96%) were called active. Inconclusive means that the source gave no clear call. Such entries were picked first, then a sample of the others. The call rests on the fitted dose curve; in most records, active means well fitted cell-killing curve with a large enough effect; inconclusive means small, poorly fitted or top-dose-only effect; inactive means no such curve, though single readings can be large or run the other way. Where the call is inconclusive, the potency comes from a doubtful curve fit.

Assay: qHTS Screen for Compounds that Selectively Target Cancer Cells with p53 Mutations: Cytotoxicity of p53 Null Cells at the Nonpermissive Temperature; further: nearly all actives have a fitted effect of over 50% in size;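 on activity, negative = cell killing: 0% = DMSO only and -100% = full killing by 100 µM tamoxifen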
Conditions: H1299 p53-null (neo) cells, 39C, ATPlite viability, 24 h; activity, negative = cell killing: at 46.1 µM (top of the series)
Summary of the method: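 Following overnight plating at 37C (600 cells/well), H1299-neo or H1299-p53A138V cells are dosed up to 46 uM. Incubation lasts 24 hr at 39C before ATP detection.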
Potency means the concentration at half of the fitted maximal effect; tags describe the fitted curve by direction and shape.

With `C=Cc1ccc(Cn2c(C(=O)O)c(CNCc3cc(OC)ccc3OC)c3ccc(C)cc32)cc1` as the compound, how does the Potency read?
The Potency was inconclusive: 20 µM [cytotoxic, single point].

For `CCOc1ccccc1NC(=O)c1ccc2oc(=O)c(S(=O)(=O)c3ccc(F)cc3)cc2c1`, which Potency is on record?
The Potency was inconclusive: 20 µM [cytotoxic, single point].

For `CCc1ccc(NC(=O)CN2C(=O)C(=O)c3ccccc32)cc1`, which “activity, negative = cell killing” value is on record?
The value was inactive: -22.8%.

With `O=C(CSc1ccc(-c2ccccn2)nn1)Nc1ccc(F)c(F)c1` as the compound, how does the Potency read?
Its Potency is inconclusive: 0.0631 µM [cytotoxic, full curve, poor fit].

Which Potency does the source give for `CCN(CC)c1nc(-c2ccc(C(C)(C)C)cc2)nc2ccccc12` here?
Its Potency is inconclusive: 14.1 µM [cytotoxic, partial curve].

Which Potency does the source give for `COc1ccc(OC)c(NC2=C(c3ccccc3)C(=O)c3ccccc32)c1` here?
Its Potency is inconclusive: 3.16 µM [cytotoxic, partial curve, poor fit].

For `O=C(Cn1ncc2c(=O)oc3ccccc3c21)Nc1cc(F)ccc1F`, which Potency is on record?
The Potency was inconclusive: 6.31 µM [cytotoxic, partial curve].

For `O=C(CCC(=O)N1Cc2ccccc2Oc2ncccc21)Nc1ccc(Cl)cc1`, which Potency is on record?
The Potency was inconclusive: 20 µM [cytotoxic, single point].

Which Potency does the source give for `Cc1ccccc1Nc1sc(C(=O)c2ccc3c(c2)OCO3)c(N)c1S(=O)(=O)c1ccccc1` here?
Its Potency is inconclusive: 0.199 µM [cytotoxic, full curve, poor fit].

For `Cc1ccccc1CNC(=O)c1ccc(NC(=O)c2nsc3ccccc23)cc1`, which Potency is on record?
Its Potency is inconclusive: 31.6 µM [cytotoxic, partial curve, poor fit].

With `CC(C)c1ccc(NS(=O)(=O)c2ccc3[nH]cc(C(=O)NC4CCCC4)c(=O)c3c2)cc1` as the compound, how does the Potency read?
Its Potency is inconclusive: 22.4 µM [cytotoxic, single point].

With `CC1CCCCN1c1csc2ccc(F)cc2c1=O` (stereo not given) as the compound, how does the Potency read?
The Potency was inconclusive: 0.112 µM [cytotoxic, full curve, poor fit].

For `Cc1cc(Nc2ccc(C)c(Cl)c2)n2nc(Cc3ccccc3)nc2n1`, which Potency is on record?
Its Potency is inconclusive: 31.6 µM [cytotoxic, single point].

With `O=C(Cn1c(=O)n(Cc2ccco2)c(=O)c2ccccc21)Nc1ccc(Cl)cc1Cl` as the compound, how does the Potency read?
The Potency was inconclusive: 12.6 µM [cytotoxic, partial curve].

With `CC(=O)Nc1cccc(NC(=O)CN2C(=O)CCSc3ccccc32)c1` as the compound, how does the “activity, negative = cell killing” value read?
Its value is inactive: 10.2%.

Which Potency does the source give for `Cc1ccc(-n2c(=O)c3ccc(C(=O)NCc4ccccc4Cl)cc3n(CC(N)=O)c2=O)cc1` here?
The Potency was inconclusive: 31.6 µM [cytotoxic, single point].

For `CNc1oc(/C=C/c2cc(OC)c(OC)c(OC)c2)nc1C#N`, which Potency is on record?
Its Potency is inconclusive: 31.6 µM [cytotoxic, partial curve].

For `Cc1cccc(OCCCCn2c(C3CC(=O)N(c4ccc(C)cc4C)C3)nc3ccccc32)c1` (stereo not given), which Potency is on record?
Its Potency is inconclusive: 10 µM [cytotoxic, single point].

For `Cc1nn(CC(=O)NCc2ccccc2Br)c(=O)c2cc3occc3n12`, which “activity, negative = cell killing” value is on record?
The value was inactive: 4.08%.

With `Cc1ccc(NC(CNS(=O)(=O)c2ccc(Cl)cc2)c2ccccc2)cc1` (stereo not given) as the compound, how does the Potency read?
Its Potency is inconclusive: 31.6 µM [cytotoxic, single point].

Which Potency does the source give for `Cc1ccc(C(=O)CSc2nnc3ccc4ccccc4n23)cc1` here?
Its Potency is inconclusive: 2 µM [cytotoxic, partial curve].

For `O=C(NC1CCCCC1)/C(=C/c1ccc(Cl)cc1)NC(=O)c1ccccc1`, which “activity, negative = cell killing” value is on record?
The value was inactive: 22.4%.

With `COc1ccc(Nc2cc(C(=O)NCCCN(C)C3CCCCC3)c3ccccc3n2)cc1` as the compound, how does the Potency read?
The Potency was inconclusive: 7.94 µM [cytotoxic, partial curve].

For `Cc1ccccc1CN1C(=O)C(O)(CC(=O)c2cccc(Br)c2)c2ccccc21` (stereo not given), which Potency is on record?
The Potency was active: 31.6 µM.

For `Cc1cnc(C(=O)Nc2ccc(N3CCOCC3)cc2)cn1`, which “activity, negative = cell killing” value is on record?
The value was inactive: 14%.

With `Cc1ccc(Cl)cc1N(C)C(=O)c1cc2ccc3cccnc3c2[nH]1` as the compound, how does the Potency read?
The Potency was inconclusive: 3.16 µM [cytotoxic, single point].

With `Cc1[nH]c2ccccc2c1C1(O)C(=O)N(Cc2ccc(Cl)cc2)c2ccccc21` (stereo not given) as the compound, how does the Potency read?
The Potency was inconclusive: 31.6 µM [cytotoxic, single point].

Which Potency does the source give for `CCOC(=O)c1cc2c(=O)n3ccccc3nc2n(CC2CCCO2)c1=NC(=O)c1cc(C)cc(C)c1` (stereo not given) here?
Its Potency is inconclusive: 0.0631 µM [cytotoxic, full curve].

With `O=C(Cn1ncc2c3ccccc3n(Cc3ccc(Cl)cc3)c2c1=O)NC1CCCCCC1` as the compound, how does the Potency read?
Its Potency is inconclusive: 12.6 µM [cytotoxic, partial curve, poor fit].

Which Potency does the source give for `COc1cc(-c2nnc(SCC(=O)Nc3cccc(C#N)c3)o2)cc(OC)c1OC` here?
The Potency was inconclusive: 28.2 µM [cytotoxic, single point].

Which Potency does the source give for `N#Cc1cc2c(=O)n3ccccc3nc2n(-c2nnc(SCc3ccccc3F)s2)c1=O` here?
The Potency was inconclusive: 0.1 µM [cytotoxic, full curve, poor fit].

With `CCOC(=O)c1noc2nc(C)n(CC(=O)Nc3ccc(Br)cc3C)c(=O)c12` as the compound, how does the Potency read?
The Potency was inconclusive: 0.224 µM [cytotoxic, full curve, poor fit].

For `CCOc1ccccc1N(CC)C(=O)c1cc2c(=O)n(CC)c3ccccc3c2s1`, which Potency is on record?
The Potency was inconclusive: 35.5 µM [cytotoxic, single point].

For `CCOc1ccccc1C(=O)Nc1cc2c(cc1N1CCCCC1)n(C)c(=O)n2C`, which Potency is on record?
The Potency was inconclusive: 15.8 µM [cytotoxic, single point].

With `O=C(/C=C/c1ccccc1)Nc1nc(-c2cccs2)ns1` as the compound, how does the “activity, negative = cell killing” value read?
Its value is inactive: -13.3%.

With `Cc1cc(C)cc(NS(=O)(=O)c2ccc3[nH]cc(C(=O)NCc4ccco4)c(=O)c3c2)c1` as the compound, how does the Potency read?
Its Potency is inconclusive: 2.51 µM [cytotoxic, full curve].

For `Cc1ccc(NC(=O)NC(C)c2c(-n3cccc3)sc(C)c2C)cc1F` (stereo not given), which Potency is on record?
The Potency was inconclusive: 12.6 µM [cytotoxic, partial curve].

With `COC(=O)c1ccccc1NC(=O)c1oc2ccc3c(c2c1C)C(=O)CC(C)(C)O3` as the compound, how does the “activity, negative = cell killing” value read?
The value was inactive: 3.57%.

With `O=C(NCc1nc2ccccc2n1Cc1ccccc1Cl)c1ccccc1` as the compound, how does the Potency read?
Its Potency is inconclusive: 0.01 µM [cytotoxic, full curve, poor fit].

For `COc1ccc(OCC(=O)Nc2ccc(Cl)c(-c3nc4ncccc4o3)c2)cc1`, which Potency is on record?
The Potency was inconclusive: 10 µM [cytotoxic, single point].
